Reference: PubChem BioAssay AID624417 (National Center for Advancing Translational Sciences (NCATS), 2012)
Where “and” joins values, the source holds several entries; their conditions need not be identical. Identical values can stand only once. Out of some 410,000 compounds screened, about 6,400 (1.6%) were called active. Inconclusive means that the source gave no clear call. Such entries were picked first, then a sample of the others. Calls follow the shape of the dose curve; as a rule, active = well fitted inhibition curve with a large enough effect; inconclusive = small, poorly fitted or top-dose-only effect; inactive = no such curve, though single readings can be large or run the other way. Potencies beside an inconclusive call are fits to weak or partial responses and may not hold up.
Also: nearly all actives have a fitted effect of over 55% in size.
Potency is read from the fitted curve at half-maximal effect; tags tell the direction and shape of the fitted curve.

The molecules below were run against Glucagon-like peptide 1 receptor (Homo sapiens) (UniProt P43220) (assay: qHTS of GLP-1 Receptor Inverse Agonists (Inhibition Mode)). Conditions: HEK293 GLP-1R CRE-luciferase, luminescence, 24 h, GLP-1R form is constitutively active; series mostly up to 38.3 µM.
Sequence of UniProt P43220 (P43220 whole entry, looked up): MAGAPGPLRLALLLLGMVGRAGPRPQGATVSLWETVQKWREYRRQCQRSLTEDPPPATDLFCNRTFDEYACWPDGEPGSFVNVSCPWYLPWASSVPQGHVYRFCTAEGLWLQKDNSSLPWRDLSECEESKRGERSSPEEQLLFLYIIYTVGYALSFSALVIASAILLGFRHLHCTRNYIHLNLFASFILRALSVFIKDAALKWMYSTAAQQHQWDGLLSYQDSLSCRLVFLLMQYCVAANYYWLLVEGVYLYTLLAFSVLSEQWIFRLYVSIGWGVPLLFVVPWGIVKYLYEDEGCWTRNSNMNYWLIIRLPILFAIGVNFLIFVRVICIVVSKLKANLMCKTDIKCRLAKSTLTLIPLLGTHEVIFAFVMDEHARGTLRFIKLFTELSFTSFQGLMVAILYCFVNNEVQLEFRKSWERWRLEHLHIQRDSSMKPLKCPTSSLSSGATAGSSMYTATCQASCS
Outline: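 Using stably transfected HEK293 (constitutively active GLP-1R, cAMP-luciferase reporter), compounds were incubated 24 hr and luciferase measured by luminescence.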
C(#CCN1CCOCC1)COCCCOC(c1ccccc1)c1ccccc1 was tested, and the Potency was inconclusive: 28.2 µM [inhibitor, single point]. In the case of CCN(CC)CCNC(=O)CSc1c2c(nc3cc(Cl)ccc13)CCCC2, the Potency is reported as inconclusive: 28.2 µM [inhibitor, single point]. For CC(C)(C)c1nnc(NC(=S)Nc2ccccc2)s1, the Potency was “inactive”. For Cn1c(-c2ccccc2)cnc1NCc1ccc(-c2ccccc2)cc1, the Potency was inconclusive: 28.2 µM [inhibitor, single point]. In the case of COC(=O)CNC(c1ccccc1)c1cc(Br)ccc1NC(=O)CNC(=O)OCc1ccccc1 (stereo unspecified), the Potency is reported as inconclusive: 11.2 µM [inhibitor, partial curve, poor fit]. With Nc1nc(OCc2ccccc2)c2[nH]cnc2n1 the Potency was “inactive”. In the case of CCOc1ccc(N2CC(C(=O)N3CCc4ccccc4C3)CC2=O)cc1 (stereo unspecified), the Potency is reported as inconclusive: 7.08 µM [inhibitor, partial curve, poor fit]. In the case of CCCOc1cccc(C2C(C(=O)c3cc4ccccc4o3)=C(O)C(=O)N2c2cc(C)on2)c1 (stereo unspecified), the Potency is reported as “inactive”. N#CCCN(C(=O)COC(=O)CCc1c[nH]c2ccccc12)c1ccc(F)cc1 was tested, and the Potency was inconclusive: 4.47 µM [inhibitor, single point]. For C=CCNCCOc1ccc(C(C)(C)c2ccccc2)cc1, the Potency was inconclusive: 31.6 µM [inhibitor, partial curve, poor fit]. For COc1ccc(C(CC(=O)O)c2ccc3c(c2)OCO3)cc1 (stereo unspecified), the Potency was “inactive”. CN(CC(=O)NCCc1ccc(F)cc1)Cc1ccccc1 was tested, and the Potency was inconclusive: 7.94 µM [inhibitor, partial curve, poor fit]. For O=C(N/N=C/c1ccc(C(F)(F)F)cc1)c1ccc(O)cc1, the Potency was inconclusive: 1.12 µM [inhibitor, full curve, poor fit]. For COc1cc(CNC2CCCc3ccccc32)cc(OC)c1OC (stereo unspecified), the Potency was inconclusive: 28.2 µM [inhibitor, single point]. For Cc1cc(OCC(=O)Nc2ccc(N3CCN(C)CC3)cc2)ccc1Cl, the Potency was inconclusive: 3.55 µM [inhibitor, partial curve, poor fit]. In the case of CC(C)Cn1cnc2c(SCc3ccccc3Cl)nc(N)nc21, the Potency is reported as inconclusive: 28.2 µM [inhibitor, single point]. CN1CCN(c2cccc3c2S(=O)(=O)N[C@H](Cc2ccccc2)CO3)CC1 was tested, and the Potency was “inactive”. O=C(O)C1CCCN1c1nc(-c2ccc(Cl)c(Cl)c2)cc(C(F)(F)F)n1 (stereo unspecified) was tested, and the Potency was inconclusive: 0.447 µM [inhibitor, partial curve, poor fit]. With Cc1c(C)n(C)c2ccc(C(=O)Nc3cccc4ccccc34)cc12 the Potency was inconclusive: 10 µM [inhibitor, partial curve, poor fit]. For Cc1ccc(C2CC(c3ccccc3)=NN2c2ccc(S(N)(=O)=O)cc2)cc1 (stereo unspecified), the Potency was inconclusive: 14.1 µM [inhibitor, single point]. With O=C(NCc1ccc(Cl)cc1)C1CCC(CNc2c(N3CCCC3)c(=O)c2=O)CC1 (stereo unspecified) the Potency was “inactive”. COc1ccccc1NC(=O)c1cc(-c2ccc(C)o2)nc2ccccc12 was tested, and the Potency was “inactive”. In the case of CCOc1ccc2nc(N3CCCC(C(=O)NCCCN4C(C)CCCC4C)C3)sc2c1 (stereo unspecified), the Potency is reported as inconclusive: 11.2 µM [inhibitor, partial curve, poor fit]. In the case of CN(C)CCCn1c(=S)[nH]c2ccccc2c1=O, the Potency is reported as “inactive”. For COc1cc(C(=O)OCC#N)ccc1OCc1c(C)noc1C, the Potency was inconclusive: 10 µM [inhibitor, partial curve, poor fit]. CC(NC(=O)Cn1ncc(Cl)c(Cl)c1=O)C12CC3CC(CC(C3)C1)C2 (stereo unspecified) was tested, and the Potency was inconclusive: 28.2 µM [inhibitor, single point]. For CN(Cc1ccc(Cl)s1)C(=O)CNC(=O)CNC(=O)c1ccc(Cl)cc1Cl, the Potency was inconclusive: 28.2 µM [inhibitor, single point]. For COC(=O)[C@@]1(Cc2ccccc2)[C@H]2C(=O)N(Cc3ccccc3)C(=O)[C@H]2[C@H]2CN=C(SCc3ccc(C)cc3)N21, the Potency was inconclusive: 12.6 µM [inhibitor, single point]. For CC1CCCCC1NC(=S)NC(=O)c1ccccc1Br (stereo unspecified), the Potency was inconclusive: 10 µM [inhibitor, partial curve, poor fit]. For O=C(CN1C2=NCCN2c2ccccc21)C12CC3CC(CC(C3)C1)C2, the Potency was inconclusive: 8.91 µM [inhibitor, partial curve, poor fit]. With CCCCC(c1nnnn1CC1CCCO1)N1CCN(c2cc(Cl)ccc2C)CC1 (stereo unspecified) the Potency was “inactive”. For Cn1c(=O)c2c(nc(NCc3ccco3)n2C)n(C)c1=O, the Potency was “inactive”. For CCc1nc2ccccc2c(C(=O)OCC(=O)Nc2cccc(S(=O)(=O)N3CCOCC3)c2)c1C, the Potency was inconclusive: 28.2 µM [inhibitor, single point]. COc1ccc(C2/C=C\CN(S(=O)(=O)c3ccc(C)cc3)CC(=O)N2Cc2ccc(F)cc2)cc1 (stereo unspecified) was tested, and the Potency was inconclusive: 28.2 µM [inhibitor, single point]. In the case of Nc1cccc2nc3ccccc3cc12, the Potency is reported as inconclusive: 7.94 µM [inhibitor, partial curve, poor fit]. In the case of CCOC(=O)c1ccc2c(c1)nc(-c1ccc(F)cc1)c1nccn12, the Potency is reported as “inactive”. For O=C1c2ccccc2C(=O)N1CCCCCCc1ccccc1, the Potency was inconclusive: 11.2 µM [inhibitor, single point]. In the case of COc1ccccc1/C=C/C(=O)NC(=S)Nc1ccc(S(=O)(=O)N(C)c2ccccc2)cc1, the Potency is reported as “inactive”. For O=C(N[C@H]1C/C=C\C(c2cccc(F)c2)N(Cc2ccccc2)C(=O)C1)OCC1c2ccccc2-c2ccccc21 (stereo partly specified), the Potency was inconclusive: 12.6 µM [inhibitor, single point]. O=C(Oc1cccc2cccnc12)c1ccc(N2C(=O)C3C4CCC(C4)C3C2=O)cc1 (stereo unspecified) was tested, and the Potency was active: 2.82 µM. C(=N\N1CCN(C2c3ccccc3-c3ccccc32)CC1)/c1ccccn1 was tested, and the Potency was “inactive”. COc1ccccc1NCc1cccn1-c1nnc(N2CCOCC2)s1 was tested, and the Potency was “inactive”. For CCOc1ccc(C2=Nn3c(nnc3-c3ccccc3)SC2)cc1Cl, the Potency was “inactive”. CNCc1ccccc1Sc1cccc2ccccc12 was tested, and the Potency was inconclusive: 22.4 µM [inhibitor, single point]. In the case of Cc1cc(C)cc(OC(=O)CS(=O)c2ccc(C(F)(F)F)cc2[N+](=O)[O-])c1 (stereo unspecified), the Potency is reported as inconclusive: 28.2 µM [inhibitor, single point]. For CN(C(=O)c1ccc2c(c1)N(Cc1cccc(Cl)c1)C(=O)c1ccccc1S2=O)C1CCCCC1 (stereo unspecified), the Potency was inconclusive: 20 µM [inhibitor, single point]. For CC1(C)CC(=O)C=C(c2ccc(COC(=O)C(c3ccccc3)c3ccccc3)cc2)C1=O, the Potency was inconclusive: 11.2 µM [inhibitor, single point]. With CCOC(=O)C1=C(CS(=O)(=O)c2ccc(C)cc2)NC(=O)NC1c1ccc(C(C)C)cc1 (stereo unspecified) the Potency was inconclusive: 28.2 µM [inhibitor, single point]. Cc1ccc(C(=O)COC(=O)c2cc(=O)[nH]c3ccccc23)cc1 was tested, and the Potency was “inactive”. For COCCN1C(=O)C(CC(=O)Nc2ccc(C(C)=O)cc2)SC1=Nc1ccccc1 (stereo unspecified), the Potency was inconclusive: 11.2 µM [inhibitor, single point] and inconclusive: 12.6 µM [inhibitor, partial curve, poor fit]. For CCC(C(=O)NCc1ccco1)N(C(=O)CNS(=O)(=O)c1ccc(C)cc1)c1ccccc1F (stereo unspecified), the Potency was “inactive”. In the case of O=C(COc1ccc(F)cc1)Nc1cc(S(=O)(=O)N2CCCCC2)ccc1N1CCCCC1, the Potency is reported as inconclusive: 0.501 µM [inhibitor, full curve, poor fit]. In the case of CNC(=S)N(Cc1ccc(OC)cc1)Cc1cc2cccc(C)c2[nH]c1=O, the Potency is reported as inconclusive: 31.6 µM [inhibitor, single point]. COc1ccc(/C=C/c2ccc(=O)n(Cc3ccccc3)n2)cc1 was tested, and the Potency was inconclusive: 3.55 µM [inhibitor, full curve, poor fit]. For Cc1ccc(NC(=O)c2cc(-c3cc(F)ccc3OCC3CCCO3)n[nH]2)cc1NS(C)(=O)=O (stereo unspecified), the Potency was inconclusive: 28.2 µM [inhibitor, single point]. For Cc1ccc(CSCc2ccc(C(=O)NCCc3ccc(Cl)cc3)o2)cc1, the Potency was inconclusive: 10 µM [inhibitor, partial curve, poor fit]. For COc1ccccc1N1CCN(CC(=O)Nc2ccc3c(c2)OCCO3)CC1, the Potency was “inactive”. For CC(C)(C)c1ccc(C(=O)O/N=C(\N)Cc2cccs2)cc1, the Potency was inconclusive: 20 µM [inhibitor, single point]. With O=C/C=C/c1c(-c2ccccc2)cc2oc3ccccc3cc1-2 the Potency was “inactive”. CC1CCN(S(=O)(=O)c2ccc(NC(=O)CN3C(=O)NC(C)(c4ccccc4)C3=O)cc2)CC1 (stereo unspecified) was tested, and the Potency was inconclusive: 11.2 µM [inhibitor, partial curve, poor fit]. COc1ccc2nc(/N=C(\N)NC(=O)C(C)(C)C)nc(C)c2c1 was tested, and the Potency was “inactive”. In the case of COc1ccc(/C=N/NC(=O)c2cccnc2)cc1COc1ccc([N+](=O)[O-])c(C)c1, the Potency is reported as inconclusive: 3.16 µM [inhibitor, partial curve, poor fit]. In the case of CCc1c(-c2cccc(Cl)c2)ncn1Cc1cccc(-c2ccccc2)c1, the Potency is reported as inconclusive: 11.2 µM [inhibitor, single point]. With Cn1c(Cn2c(C(F)(F)F)nc3ccccc32)nc2ccccc21 the Potency was inconclusive: 7.08 µM [inhibitor, partial curve, poor fit]. For Cc1ccc(NC(=O)COc2ccc(/C=N/NC(=O)CSCc3ccccc3)cc2)cc1, the Potency was “inactive”. In the case of CCc1cc2c(=O)c(-c3ccc4c(c3)OCO4)coc2c(CN(C)C)c1O, the Potency is reported as “inactive”.
